Laboratory results: the supplement of paper PMC11543636

Experiments:
Test in all cases: Isolates counted by MIC; Broth microdilution on commercial drug-susceptibility plates, read by two operators.
[1] = system: Mycobacterium tuberculosis lineage 1 on plate MYCOTB (31 isolates)
[2] = system: Mycobacterium tuberculosis lineage 2 on plate MYCOTB (3815 isolates)
[3] = system: Mycobacterium tuberculosis lineage 2 on plate UKMYC5 (529 isolates)
[4] = system: Mycobacterium tuberculosis lineage 2 on plate UKMYC6 (1560 isolates)
[5] = system: Mycobacterium tuberculosis lineage 3 on plate UKMYC6 (383 isolates)
[6] = system: Mycobacterium tuberculosis lineage 4 on plate MYCOTB (1613 isolates)
[7] = system: Mycobacterium tuberculosis lineage 4 on plate UKMYC5 (155 isolates)
[8] = system: Mycobacterium tuberculosis lineage 4 on plate UKMYC6 (615 isolates)
[9] = system: Mycobacterium tuberculosis lineage 2 on plate UKMYC5 (530 isolates)
[10] = system: Mycobacterium tuberculosis lineage 2 on plate UKMYC6 (1563 isolates)
[11] = system: Mycobacterium tuberculosis lineage 3 on plate UKMYC6 (380 isolates)
[12] = system: Mycobacterium tuberculosis lineage 4 on plate UKMYC6 (614 isolates)
[13] = system: Mycobacterium tuberculosis lineage 2 on plate UKMYC5 (526 isolates)
[14] = system: Mycobacterium tuberculosis lineage 2 on plate UKMYC6 (1559 isolates)
[15] = system: Mycobacterium tuberculosis lineage 4 on plate UKMYC6 (613 isolates)
[16] = system: Mycobacterium tuberculosis lineage 2 on plate MYCOTB (3813 isolates)
[17] = system: Mycobacterium tuberculosis lineage 2 on plate UKMYC6 (1557 isolates)

NCC[C@H](O)C(=O)N[C@@H]1C[C@H](N)[C@@H](O[C@H]2O[C@H](CN)[C@@H](O)[C@H](O)[C@H]2O)[C@H](O)[C@H]1O[C@H]1O[C@H](CO)[C@@H](O)[C@H](N)[C@H]1O [amikacin]
isolate count
Settings | [1] | [2] | [3] | [4] | [5] | [6] | [7] | [8]
MIC: 0.25 mg/L | 12 [S] | 2310 [S] | – | – | – | 435 [S] | – | –
MIC: 0.5 mg/L | 15 [S] | 1300 [S] | 178 [S] | 341 [S] | 163 [S] | 1080 [S] | 88 [S] | 343 [S]
MIC: 1 mg/L | – | 45 [S] | 67 [S] | 15 [S] | 3 [S] | 61 [S] | 28 [S] | 14 [S]
MIC: 2 mg/L | 1 [S] | 9 [S] | 6 [R] | 2 [R] | – | 1 [S] | – | 1 [R]
MIC: 4 mg/L | – | 7 [S] | 4 [R] | 2 [R] | – | 3 [S] | – | 3 [R]
MIC: 8 mg/L | 1 [R] | 7 [R] | – | 4 [R] | – | 3 [R] | – | –
MIC: >8 mg/L | – | – | 1 [R] | – | – | – | – | –
MIC: >16 mg/L | – | – | – | 7 [R] | – | 3 [R] | – | –
MIC: ≤0.12 mg/L | 1 [S] | 109 [S] | – | – | – | 25 [S] | – | –
MIC: ≤0.25 mg/L | – | – | 258 [S] | 1180 [S] | 215 [S] | – | 39 [S] | 252 [S]
MIC: ≥8 mg/L | – | – | 15 [R] | – | – | – | – | –
MIC: ≥16 mg/L | 1 [R] | 29 [R] | – | 5 [R] | 2 [R] | 4 [R] | – | 2 [R]

CC(C)/N=c1\cc2n(-c3ccc(Cl)cc3)c3ccccc3nc-2cc1Nc1ccc(Cl)cc1 [clofazimine]
isolate count
Settings | MIC: 0.06 mg/L | MIC: 0.12 mg/L | MIC: 0.25 mg/L | MIC: 0.5 mg/L | MIC: 1 mg/L | MIC: 2 mg/L | MIC: 4 mg/L | MIC: >2 mg/L | MIC: ≤0.03 mg/L | MIC: ≤0.06 mg/L
[7] | – | 41 [S] | 53 [S] | 21 [R] | 2 [R] | 1 [R] | 1 [R] | – | – | 36 [S]
[9] | 5 [S] | 148 [S] | 234 [S] | 54 [R] | 7 [R] | 6 [R] | 1 [R] | – | – | 75 [S]
[10] | 580 [S] | 764 [S] | 113 [S] | 22 [R] | 4 [R] | – | – | 4 [R] | 75 [S] | 1 [S]
[11] | 121 [S] | 229 [S] | 29 [S] | 1 [R] | – | – | – | – | – | –
[12] | 174 [S] | 370 [S] | 41 [S] | 4 [R] | – | – | – | – | 25 [S] | –

C[C@]1(COc2ccc(N3CCC(Oc4ccc(OC(F)(F)F)cc4)CC3)cc2)Cn2cc([N+](=O)[O-])nc2O1 [delamanid]
isolate count
Settings | [7] | [11] | [13] | [14] | [15]
MIC: 0.015 mg/L | – | 215 [S] | 2 [S] | 636 [S] | 255 [S]
MIC: 0.03 mg/L | 25 [S] | 53 [S] | 40 [S] | 132 [S] | 81 [S]
MIC: 0.06 mg/L | 8 [S] | 3 [S] | 12 [S] | 9 [S] | 10 [S]
MIC: 0.12 mg/L | – | – | 1 [S] | 2 [S] | 1 [S]
MIC: 0.25 mg/L | – | – | – | 3 [R] | 2 [R]
MIC: >0.5 mg/L | – | – | – | 24 [R] | 3 [R]
MIC: >1 mg/L | – | – | 3 [R] | – | –
MIC: ≤0.008 mg/L | – | 109 [S] | – | 740 [S] | 259 [S]
MIC: ≤0.015 mg/L | 122 [S] | – | 465 [S] | – | –
MIC: ≥0.5 mg/L | – | – | – | 13 [R] | 2 [R]
MIC: ≥1 mg/L | – | – | 3 [R] | – | –

NNC(=O)c1ccncc1 [isoniazid]
Settings | isolate count
[1], MIC: 0.06 mg/L | 8 [S]
[1], MIC: ≤0.03 mg/L | 20 [S]
[1], MIC: ≥4 mg/L | 3 [R]
[3], MIC: 0.05 mg/L | 295 [S]
[3], MIC: 0.1 mg/L | 23 [S]
[3], MIC: 0.2 mg/L | 16 [R]
[3], MIC: 0.4 mg/L | 12 [R]
[3], MIC: 0.8 mg/L | 8 [R]
[3], MIC: >1.6 mg/L | 29 [R]
[3], MIC: ≤0.025 mg/L | 110 [S]
[3], MIC: ≥1.6 mg/L | 36 [R]
[5], MIC: 0.05 mg/L | 264 [S]
[5], MIC: 0.1 mg/L | 7 [S]
[5], MIC: 0.2 mg/L | 3 [R]
[5], MIC: 0.4 mg/L | 8 [R]
[5], MIC: 1.6 mg/L | 7 [R]
[5], MIC: 3.2 mg/L | 10 [R]
[5], MIC: 6.4 mg/L | 4 [R]
[5], MIC: ≤0.025 mg/L | 73 [S]
[5], MIC: ≥12.8 mg/L | 7 [R]
[6], MIC: 0.06 mg/L | 683 [S]
[6], MIC: 0.12 mg/L | 47 [S]
[6], MIC: 0.25 mg/L | 40 [R]
[6], MIC: 0.5 mg/L | 16 [R]
[6], MIC: 1 mg/L | 8 [R]
[6], MIC: 2 mg/L | 26 [R]
[6], MIC: >4 mg/L | 5 [R]
[6], MIC: ≤0.03 mg/L | 698 [S]
[6], MIC: ≥4 mg/L | 90 [R]
[7], MIC: 0.05 mg/L | 109 [S]
[7], MIC: 0.1 mg/L | 7 [S]
[7], MIC: 0.2 mg/L | 2 [R]
[7], MIC: 0.4 mg/L | 1 [R]
[7], MIC: >1.6 mg/L | 6 [R]
[7], MIC: ≤0.025 mg/L | 26 [S]
[7], MIC: ≥1.6 mg/L | 4 [R]
[12], MIC: 0.05 mg/L | 267 [S]
[12], MIC: 0.1 mg/L | 15 [S]
[12], MIC: 0.2 mg/L | 14 [R]
[12], MIC: 0.4 mg/L | 9 [R]
[12], MIC: 0.8 mg/L | 9 [R]
[12], MIC: 1.6 mg/L | 13 [R]
[12], MIC: 3.2 mg/L | 10 [R]
[12], MIC: 6.4 mg/L | 2 [R]
[12], MIC: >12.8 mg/L | 2 [R]
[12], MIC: ≤0.025 mg/L | 266 [S]
[12], MIC: ≥12.8 mg/L | 7 [R]
[16], MIC: 0.06 mg/L | 804 [S]
[16], MIC: 0.12 mg/L | 86 [S]
[16], MIC: 0.25 mg/L | 92 [R]
[16], MIC: 0.5 mg/L | 24 [R]
[16], MIC: 1 mg/L | 46 [R]
[16], MIC: 2 mg/L | 176 [R]
[16], MIC: >4 mg/L | 13 [R]
[16], MIC: ≤0.03 mg/L | 2300 [S]
[16], MIC: ≥4 mg/L | 270 [R]
[17], MIC: 0.05 mg/L | 526 [S]
[17], MIC: 0.1 mg/L | 54 [S]
[17], MIC: 0.2 mg/L | 35 [R]
[17], MIC: 0.4 mg/L | 18 [R]
[17], MIC: 0.8 mg/L | 18 [R]
[17], MIC: 1.6 mg/L | 63 [R]
[17], MIC: 3.2 mg/L | 90 [R]
[17], MIC: 6.4 mg/L | 11 [R]
[17], MIC: >12.8 mg/L | 3 [R]
[17], MIC: ≤0.025 mg/L | 727 [S]
[17], MIC: ≥12.8 mg/L | 12 [R]

Each value is the number of isolates with that result; steps that no isolate showed are left empty. MIC of clinical M. tuberculosis isolates from a national drug-resistance survey, broth microdilution on MYCOTB, UKMYC5 or UKMYC6 plates (ranges differ by plate), read after 10-21 days; higher = less susceptible. Call: the paper's susceptible [S] / resistant [R] by the drug's critical concentration (it differs by plate for some drugs); calls for ofloxacin and levofloxacin are not shown. MYCOTB plates carry ofloxacin; the paper halves those MICs to stand for levofloxacin, and they are doubled back here. The top step of a plate is printed with and without '>' in the source and is marked '>=' when plain; the plain lowest step of rifampicin and kanamycin on MYCOTB is marked '<='. Isolates that the source marks as part of the WHO data set are not listed here.
